{
  "source": "paper PMC4336329",
  "about": "(PLoS ONE, 2015)",
  "note": "Among all 310,000 compounds or so, about 2,200 (0.71%) showed an effect of 50% or more. The effect is printed as a negative number. This is one part of the list.",
  "data": [
    {"biological_target": "human ether-à-go-go-related gene (hERG) potassium channel (human, UniProt Q12809)", "sequence (Q12809 whole entry, looked up)": "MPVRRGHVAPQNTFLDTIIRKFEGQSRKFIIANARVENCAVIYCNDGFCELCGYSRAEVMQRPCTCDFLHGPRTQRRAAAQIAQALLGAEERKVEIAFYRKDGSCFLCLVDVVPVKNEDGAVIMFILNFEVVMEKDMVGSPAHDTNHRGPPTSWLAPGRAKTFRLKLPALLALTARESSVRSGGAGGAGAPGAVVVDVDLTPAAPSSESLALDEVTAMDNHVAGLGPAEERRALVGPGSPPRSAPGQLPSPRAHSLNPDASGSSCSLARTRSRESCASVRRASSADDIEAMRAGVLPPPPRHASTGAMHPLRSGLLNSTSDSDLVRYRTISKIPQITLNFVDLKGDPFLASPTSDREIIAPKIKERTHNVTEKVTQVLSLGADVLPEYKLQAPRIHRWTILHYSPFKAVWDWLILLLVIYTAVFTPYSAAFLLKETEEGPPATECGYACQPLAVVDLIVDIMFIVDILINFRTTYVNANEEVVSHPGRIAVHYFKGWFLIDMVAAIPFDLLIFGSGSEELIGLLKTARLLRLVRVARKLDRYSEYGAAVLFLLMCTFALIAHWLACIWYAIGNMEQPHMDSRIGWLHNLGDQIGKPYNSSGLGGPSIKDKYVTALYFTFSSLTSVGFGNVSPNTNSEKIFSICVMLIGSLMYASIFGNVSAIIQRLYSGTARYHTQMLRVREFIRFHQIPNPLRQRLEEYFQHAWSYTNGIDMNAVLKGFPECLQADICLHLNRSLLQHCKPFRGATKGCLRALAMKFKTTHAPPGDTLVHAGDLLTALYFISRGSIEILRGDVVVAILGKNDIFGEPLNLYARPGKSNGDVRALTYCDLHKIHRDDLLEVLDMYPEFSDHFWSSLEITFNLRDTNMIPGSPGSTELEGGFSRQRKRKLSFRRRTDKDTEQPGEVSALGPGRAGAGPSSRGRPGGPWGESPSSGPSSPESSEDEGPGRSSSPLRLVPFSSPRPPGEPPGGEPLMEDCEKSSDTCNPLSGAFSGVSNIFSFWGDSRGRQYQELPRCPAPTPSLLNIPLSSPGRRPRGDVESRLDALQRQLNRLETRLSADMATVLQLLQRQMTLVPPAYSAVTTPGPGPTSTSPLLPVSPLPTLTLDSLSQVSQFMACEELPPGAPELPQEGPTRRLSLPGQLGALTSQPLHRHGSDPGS", "assay": "primary screen, population patch clamp on CHO cells stably expressing hERG", "units": {"hERG current change (%, negative = inhibition) at 1uM": "%"}, "values": [
      {"smiles": "Cc1ccc(CCNS(=O)(=O)c2cc3c(cc2Cl)NC(=O)CO3)cc1", "hERG current change (%, negative = inhibition) at 1uM": 6.34},
      {"smiles": "Cc1cc(C)c(C#N)c(SCC(=O)C2CC2)n1", "hERG current change (%, negative = inhibition) at 1uM": 17.3},
      {"smiles": "O=c1cc(O)c2sc3nc(-c4ccccc4)cc(C(F)(F)F)c3c2[nH]1", "hERG current change (%, negative = inhibition) at 1uM": 5.74},
      {"smiles": "Cc1ccc(N=C2SC(C(=O)NCCc3ccccc3)CC(=O)N2C)cc1C", "note": "(stereo not shown)", "hERG current change (%, negative = inhibition) at 1uM": -9.82},
      {"smiles": "O=C(Nc1ccc2[nH]ccc2c1)c1cccs1", "hERG current change (%, negative = inhibition) at 1uM": 13.4},
      {"smiles": "Cc1cccc(NC(=O)CSc2nnc(NC(=O)CN3CCOCC3)s2)c1", "hERG current change (%, negative = inhibition) at 1uM": 8.91},
      {"smiles": "COCCOC(=O)c1c(NC(=O)COC(=O)c2ccc(C)o2)sc(C(N)=O)c1C", "hERG current change (%, negative = inhibition) at 1uM": 5.24},
      {"smiles": "COC(=O)c1cc(S(=O)(=O)NCCc2cccc(C)c2)cn1C", "hERG current change (%, negative = inhibition) at 1uM": 12.3},
      {"smiles": "CCCN(CC(=O)Nc1ccccc1C)C(=O)c1ccc(N2CCCCCC2)c([N+](=O)[O-])c1", "hERG current change (%, negative = inhibition) at 1uM": 11.4},
      {"smiles": "Fc1cccc(/C=C2\\CCCC3=C2NC(=S)NC3c2cccc(F)c2)c1", "note": "(stereo not shown)", "hERG current change (%, negative = inhibition) at 1uM": 15.1},
      {"smiles": "O=C(Nc1nnc(CCc2ccccc2)s1)c1cccc(F)c1", "hERG current change (%, negative = inhibition) at 1uM": 13.1},
      {"smiles": "O=C(Nc1ccc(F)cc1)Nc1ccc(N2CCCC2)c(S(=O)(=O)Nc2ccccc2Cl)c1", "hERG current change (%, negative = inhibition) at 1uM": 16.7},
      {"smiles": "Cc1ccc(NC(=S)Nc2ccc3nc(-c4ccccn4)c(-c4ccccn4)nc3c2)cc1C", "hERG current change (%, negative = inhibition) at 1uM": 2.11},
      {"smiles": "COC(=O)c1ccccc1NC(=O)c1ccc[nH+]c1.[Cl-]", "hERG current change (%, negative = inhibition) at 1uM": 10.9},
      {"smiles": "Cc1csc(=O)n1CC(=O)OCC(=O)Nc1ccc(C(N)=O)cc1", "hERG current change (%, negative = inhibition) at 1uM": 2.5},
      {"smiles": "COC(=O)c1c(-c2cccc(OC)c2)csc1N", "hERG current change (%, negative = inhibition) at 1uM": 10.3},
      {"smiles": "CC(C)(O)C#Cc1ncc(C(F)(F)F)cc1Cl", "hERG current change (%, negative = inhibition) at 1uM": 8.86},
      {"smiles": "Cc1ccc2cc(CN(C)C(=O)C3CCCO3)c(=O)[nH]c2c1", "note": "(stereo not shown)", "hERG current change (%, negative = inhibition) at 1uM": 9.68},
      {"smiles": "COc1ccccc1-n1c(-c2ccccc2F)nc2ccccc2c1=O", "hERG current change (%, negative = inhibition) at 1uM": 12.8},
      {"smiles": "O=C(CSCc1ccccc1)Nc1ccc(S(=O)(=O)N2CCOCC2)cc1", "hERG current change (%, negative = inhibition) at 1uM": 0.294},
      {"smiles": "CCc1cccc(NC(=O)CCNS(=O)(=O)c2cccc3nonc23)c1", "hERG current change (%, negative = inhibition) at 1uM": 15.7},
      {"smiles": "CCCCC(=O)Nc1cc(Cl)ccc1C(=O)O", "hERG current change (%, negative = inhibition) at 1uM": 24},
      {"smiles": "Cn1nnnc1SCC(=O)NC(=O)c1cccc([N+](=O)[O-])c1", "hERG current change (%, negative = inhibition) at 1uM": 11.9},
      {"smiles": "COc1ccc(-c2coc3cc(O)ccc3c2=O)cc1OC", "hERG current change (%, negative = inhibition) at 1uM": 9.75},
      {"smiles": "COc1ccc(C2C3CCCCC3(O)CCN2C(=O)c2cccs2)cc1", "note": "(stereo not shown)", "hERG current change (%, negative = inhibition) at 1uM": 15.9},
      {"smiles": "NC(=O)Cn1c(=O)n(CCC(=O)Nc2ccc(F)cc2)c(=O)c2sccc21", "hERG current change (%, negative = inhibition) at 1uM": 14.8},
      {"smiles": "Cc1ccc(CNC(=O)c2cnc3ccccc3n2)cc1", "hERG current change (%, negative = inhibition) at 1uM": 10.9},
      {"smiles": "O=S(=O)(c1cnc(Cl)c(Br)c1)N1CCc2ccccc21", "hERG current change (%, negative = inhibition) at 1uM": 8.18},
      {"smiles": "COc1ccc(N2CCN(C(=O)COC(=O)COc3ccc(C#N)cc3)CC2)cc1", "hERG current change (%, negative = inhibition) at 1uM": 6.82},
      {"smiles": "COc1ccccc1CNC(=O)c1ccc(CS(=O)(=O)c2ccccc2)o1", "hERG current change (%, negative = inhibition) at 1uM": 1.42},
      {"smiles": "COc1ccc(NC(=O)CCN2C(=O)c3ccc([N+](=O)[O-])cc3C2=O)c(OC)c1", "hERG current change (%, negative = inhibition) at 1uM": 8.77},
      {"smiles": "CCCC(=O)Nc1nc(-c2ccc3c(c2)CCN3S(C)(=O)=O)cs1", "hERG current change (%, negative = inhibition) at 1uM": 11.3},
      {"smiles": "CC(=O)c1c(C)nc2ccc(Cl)cn12", "hERG current change (%, negative = inhibition) at 1uM": -0.0859},
      {"smiles": "O=C(N/C(=C\\c1ccccc1)C(=O)N1CCOCC1)c1ccccc1Cl", "hERG current change (%, negative = inhibition) at 1uM": 7.43},
      {"smiles": "CCc1cc2c(COC(=O)c3cc(S(=O)(=O)N4CCOCC4)ccc3F)cc(=O)oc2cc1O", "hERG current change (%, negative = inhibition) at 1uM": 2.42},
      {"smiles": "O=C(NCCN1C(=O)S/C(=C\\c2ccccc2F)C1=O)C1CCCN1C(=O)c1cccs1", "note": "(stereo not shown)", "hERG current change (%, negative = inhibition) at 1uM": 5.12},
      {"smiles": "CCOC(=O)c1cc(C)sc1N1C(=O)C2C3C=CC(C3)C2C1=O", "note": "(stereo not shown)", "hERG current change (%, negative = inhibition) at 1uM": 4.48},
      {"smiles": "CCCc1ccc(OCc2ccc(C(=O)NN)o2)c(OC)c1", "hERG current change (%, negative = inhibition) at 1uM": 15.3},
      {"smiles": "CC(Sc1ccccc1)C(=O)NCC1COc2ccccc2O1", "note": "(stereo not shown)", "hERG current change (%, negative = inhibition) at 1uM": 5.62},
      {"smiles": "COCC(C)NC(=O)CSc1nc2nn(-c3ccccc3)c(=O)c-2c2n1CCCCC2", "note": "(stereo not shown)", "hERG current change (%, negative = inhibition) at 1uM": 14.5},
      {"smiles": "CCOC(=O)C1CCN(C(=O)CCNS(=O)(=O)c2cc(Br)cnc2N)CC1", "hERG current change (%, negative = inhibition) at 1uM": 1.54},
      {"smiles": "CC(O)CNC(=S)Nc1ccccc1", "note": "(stereo not shown)", "hERG current change (%, negative = inhibition) at 1uM": 4.63},
      {"smiles": "COCCN1Cc2cccc(C(=O)NC3CCCCCC3)c2C1=O", "hERG current change (%, negative = inhibition) at 1uM": 15.1}
    ]}
  ]
}
